The list shows a part of the results.

First the molecules themselves.
T1: UNK ZnF1-3 (human, UniProt Q9C0B0 31-174)
T1 sequence: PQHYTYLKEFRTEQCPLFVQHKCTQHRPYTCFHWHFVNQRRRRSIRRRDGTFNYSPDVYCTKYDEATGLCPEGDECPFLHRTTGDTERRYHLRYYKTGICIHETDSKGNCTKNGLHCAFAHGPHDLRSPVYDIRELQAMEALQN

B1: chr8:24301720:24301721:-_ENSMUSG00000031545_ENSMUST00000167004|mus_mus|FALSE|FALSE (ssRNA)
RNA: GGGAGUUCUACAGUCCGACGAUCUGCUUCCAAGGUUUUACUUUCCUCCUGCCCCAAAGCAUUCAGCGGGUAAAUUUGUCCUAAAGAUCUGUAUUGUCAGAAGUACCAAGAAGAGUUCGCCUUGGUGCCAGAAGAAUCCUGAAACAACAGAGGAUUGAGCAUCA
B2: chr12:39763582:39763583:-_ENSG00000139116_ENST00000544797|hu_mus|hu_hu_hu_mus_False|18_68 (ssRNA)
RNA: GGGAGUUCUACAGUCCGACGAUCCUCUAGGAACUGGGCAUUCACUUUGAAUUCAGGAGGGGGCAGCCCAUUUUUAAUCGCUGAGGUCUUUUUCUCAUCAAUACUCUUGAACAGGUGUUUAACAGCUCGAGAGAUGAUGCCCUGCAACAGAGGAUUGAGCAUCA
B3: 33135152_33138273_1075_CDS_ENSG00000162521_ENST00000458695|human|control|control (ssRNA)
RNA: GGGAGUUCUACAGUCCGACGAUCAUCUUCUGGGGAUUGUUCCUCUCCAAUUUUACUUAAAUCCCAGACAUUCAGUCUGCGAUCAGUACCACUGGAAGCUAAAAUAGUCUCAUUGUGAGGUGACCACUGAACCUGGAAUAUUUCCAACAGAGGAUUGAGCAUCA
B4: chr3:58389949:58389950:+_ENSMUSG00000075700_ENSMUST00000107924|mus_mus|motif|central (ssRNA)
RNA: GGGAGUUCUACAGUCCGACGAUCCAGGAAGAAAACCAUCAUACAUGCAUAAACCUUAUUUUCUUGGCCCCACUGCCAGAUGCGGGGAGCUUGCAUGCCGAAAAAAGCAAAAGGAUCUUUGCCAACAAUUAUUAAGCCUAUUAACAACAGAGGAUUGAGCAUCA
B5: chr2:26350769:26350770:+_ENSG00000084733_ENST00000264710|hu_hu|motif|central (ssRNA)
RNA: GGGAGUUCUACAGUCCGACGAUCGAUAUCUUCAGCUAACGUGAGGAACGCCUUUUCGAUGUUUAUAUUUGCUUUUGCACGGGUCUCAAAAAACCUAAUACCAUGCUCCCUUGCAAUCUGUUCUCCUUUUCCUUUAGGUACAACCAACAGAGGAUUGAGCAUCA
B6: chr15:96521860:96521861:-_ENSMUSG00000022462_ENSMUST00000023099|mus_mus|motif|central (ssRNA)
RNA: GGGAGUUCUACAGUCCGACGAUCGAACUCUUUUGUGGGACACAGUAAGUGAGUGACGGAACUCCGGAUAGGGAAAAUAACGGCUGGGACCGUGAGGGUGACAGCCACCAGCACAGCCAAUCGGACAACAAGGAGAAGAAUGUCCAACAGAGGAUUGAGCAUCA
B7: chr1:133183185:133183186:-_ENSMUSG00000026425_ENSMUST00000097588|mus_hu|FALSE|FALSE (ssRNA)
RNA: GGGAGUUCUACAGUCCGACGAUCUGAGUGACAGUCUUAGGUUCACACAAAGCAUCUCCAAGCAUACAUACAAUAUUCCAGUUAUCAACACUAUUUUAAAGAAUAUACCAUUUUACACAAAUGUGACAUACAAGUCAGACGCCACAACAGAGGAUUGAGCAUCA
B8: chr15:75756842:75756843:-_ENSMUSG00000022570_ENSMUST00000023231|mus_mus|FALSE|FALSE (ssRNA)
RNA: GGGAGUUCUACAGUCCGACGAUCUAGCACGUGGCCAUCUUCGAUGUUGAAGUUGUCAUAAGGCCCAAAGACAUUGGUAGGGAUGACGGCGGUGAAGGUACAGCCGUGCUGCUGGAAGUAGGCUCUGUUCUGCACGUCAAUCAUCAACAGAGGAUUGAGCAUCA
B9: chr19:54062153:54062154:+_ENSMUSG00000024976_ENSMUST00000025932|mus_mus|FALSE|FALSE (ssRNA)
RNA: GGGAGUUCUACAGUCCGACGAUCUUGGCAGACGGUACUUUGGGGUCUUUCUCUUUAGAGUCUUUUUCUUUUCCUAAACUACUACUCAUGGUGACUCAAGCUUCACUCAAACACUACAUGAACUCCUCCUCCUCGCCAGCAAUCCAACAGAGGAUUGAGCAUCA
B10: 88005186_88005763_3840_CDS_ENSMUSG00000038368_ENSMUST00000097992|mouse|control|control (ssRNA)
RNA: GGGAGUUCUACAGUCCGACGAUCAAGGGCAGCCAGACAGAGCAUGGUGGGGGCACCCUCUGUCAGGACAACUUUAAUCCAGCUGGGGCGAAGUCUGUUGCCCAAGUCUUCAGCUUUUCCAUGUCCACACACAGACAAACCAUACAACAGAGGAUUGAGCAUCA
B11: chr10:33214929:33214930:-_ENSG00000150093_ENST00000302278|hu_hu|hu_hu_hu_mus_True|28_78 (ssRNA)
RNA: GGGAGUUCUACAGUCCGACGAUCAACAAGUUCAUUGAAAAACUCUCCUCUGUCAGUAAGACUGAGCACAUUUUUGUAGCUAAAUGGGCUGGUGCAGUUUUGUUCACUUGUGCAAGGAUUUCUUAGCUUUGCUGGGGUUGUGCUCAACAGAGGAUUGAGCAUCA
B12: chr19:41288841:41288842:-_ENSMUSG00000025016_ENSMUST00000025989|mus_hu|motif|central (ssRNA)
RNA: GGGAGUUCUACAGUCCGACGAUCUAAAUCUCAAAAUGUUUAAUAAAAACAAGUAUCUUCUCCAUUUAACACUUUGCUUUCGGACUGUACAGUAAAUUGCAUUGUAGAGAGUACACUUCUGUCUUCAAACUGUAUCUUCUUUGGCAACAGAGGAUUGAGCAUCA
B13: chr12:105536279:105536280:+_ENSG00000136051_ENST00000332180|hu_mus|hu_hu_hu_mus_True|18_48 (ssRNA)
RNA: GGGAGUUCUACAGUCCGACGAUCAGCACUGAACAUGUAAUGUAAUCUGGCUGCAUCGACAGCAUUUUCAUAUACAUCAUCUAAAUAAAUUGGGAAGACAGCGCGAUGCCAGUAUAAAAAACAACAGUCACACUGUGCUUGGACCAACAGAGGAUUGAGCAUCA
B14: chr2:198351390:198351391:-_ENSG00000144381_ENST00000345042|hu_hu|hu_hu_hu_mus_False|38_48 (ssRNA)
RNA: GGGAGUUCUACAGUCCGACGAUCUCAUUCCCACCCUCCACAGAAAGGCUGCUUCUGAACUCUCAUGUGGUGACACAGCGCUACAGUCCUGAUUUUAACAGAAUAGUAGAGAUGCCUCAGUGAUUUAAGUUGAAAGCAGGACACCAACAGAGGAUUGAGCAUCA
B15: chr3:10015032:10015033:+_ENSMUSG00000027533_ENSMUST00000029046|mus_hu|motif|central (ssRNA)
RNA: GGGAGUUCUACAGUCCGACGAUCGUUUUUACCAUCACAAGUGAUGAUACAAUCUGGCUUGGCCAUUGCGCCCAUUUUUCGCAAAGCGGUUCCCACUCCUAGCUCCUUCAUGUAUUCAUCAAAGCCUUUGCUGUCCACCAGGCGCAACAGAGGAUUGAGCAUCA
B16: chr17:13112271:13112272:+_ENSMUSG00000068039_ENSMUST00000151287|mus_mus|FALSE|FALSE (ssRNA)
RNA: GGGAGUUCUACAGUCCGACGAUCAAUCAGGUUCUCAUUGAUAUAACGCACCGCUUCCUUGCAGGCAAGACGAUAGCCACUAAUAACUGAUGUUGGAUGAAUUUUCUGUUUGACUAGCUCAUCUGCAUUUUUCAGAAGCUCCGCCAACAGAGGAUUGAGCAUCA
B17: chr12:21621489:21621490:+_ENSG00000121350_ENST00000240651|hu_hu|motif|central (ssRNA)
RNA: GGGAGUUCUACAGUCCGACGAUCGACUUUGAUGUAUUCUCGUCCUUUGGUACAUCUCAGCAUUAAUUCAUGAUCUGAACCGGAGCCCUGUGCAUUGUAUUUUCCCAGCAGUACAACCUUAUAGUUAAAAAAUUUUGUCACAUGCAACAGAGGAUUGAGCAUCA
B18: chr1:58468927:58468928:-_ENSMUSG00000026034_ENSMUST00000148330|mus_mus|mus_mus_mus_hu_False|18_18 (ssRNA)
RNA: GGGAGUUCUACAGUCCGACGAUCAAUUACUGAAAAAGAUGUUCAUUACCUUAGCUAUGUACUUAAUGAACCAAAUUACCCAAACAAAAUAAACAUGGCAAUAUAAAAAUGUUAAGAAAAUAACUUACUGUACAAAAUAACUUACAACAGAGGAUUGAGCAUCA
B19: chr4:41258970:41258971:+_ENSG00000154277_ENST00000284440|hu_mus|FALSE|FALSE (ssRNA)
RNA: GGGAGUUCUACAGUCCGACGAUCAGCUGCAUCUUCGCGGAUGGCACCUGCAGACACAAACCCGAGGAGCCGAAAAAACAGCCGGUGGAGCCGCCCAGGCUGCUGUUAUAAAGCGCCGGCCUCGCUCACUGGGAAAGCCUGAGCCAACAGAGGAUUGAGCAUCA
B20: chr18:48606039:48606040:+_ENSG00000141646_ENST00000342988|hu_hu|motif|central (ssRNA)
RNA: GGGAGUUCUACAGUCCGACGAUCACAUAUUGUGUCUGUGGUACAGUCAAUACAUCUGCAACUUUUCUACUUAAAUUCUCGGUACAAAGUCACUGCCAAUUGAUAUGAUCAUUGAUGGCAAAGGGCUUAGAAUAACCAAAAGAUCAACAGAGGAUUGAGCAUCA
B21: chr7:54823571:54823572:-_ENSG00000132432_ENST00000352861|hu_mus|hu_hu_hu_mus_False|28_58 (ssRNA)
RNA: GGGAGUUCUACAGUCCGACGAUCUCCCAUGAUAGCAAAUCCUAUAGCUGUAGCCAUGGCAAUCUUCUGGAAUUCUUUUCUAUCAGGUUUGGUGCAUCUUUUAACCAGCCGAAUGGAGUCCUUUACAAACUGCCGGCUGGGCUCCAACAGAGGAUUGAGCAUCA
B22: chr2:120799606:120799607:+_ENSG00000115109_ENST00000263713|hu_hu|motif|central (ssRNA)
RNA: GGGAGUUCUACAGUCCGACGAUCGUACAUAAUCUGAUCAAACAACUCUUGUCCUUUGGCUUUUUUUGGCAAGUCCACACGGACAUCAGUACCAUCCAGAAGGGACACCCGACACGUGAUGAUGGACUUAGAAUCUCCAGCUGCCAACAGAGGAUUGAGCAUCA

The target in the experiment is T1, UNK ZnF1-3. Briefly: nsRBNS (natural sequence RNA bind-n-seq); RBNS binding buffer (assumed for nsRBNS): 25 mM Tris pH 7.5, 150 mM KCl, 3 mM MgCl2, 0.01% Triton X-100, 500 ug/ml BSA, 20 U/ml SUPERase-In, 4 C; UNK is unkempt and MSI1 is Musashi-1; names of the RNAs are library labels; protein concentration not given here; high values mean tight binding.
As for B1, the binding signal was 0.723 enrichment R.
In the case of B2 it was 1.49 enrichment R.
With B3 the figure was 0.641 enrichment R.
B4 displayed a binding signal of 1.67 enrichment R.
With B5 the figure was 0.86 enrichment R; with B6, 1.15 enrichment R.
With B7 the figure was 1.38 enrichment R; with B8, 0.81 enrichment R; with B9, 0.758 enrichment R.
Take B10: the binding signal was 0.994 enrichment R.
In the case of B11 it was 1.1 enrichment R; in that of B12, 0.577 enrichment R; in that of B13, 2.25 enrichment R.
For the molecule B14, the binding signal stood at 1.3 enrichment R.
B15 returned a binding signal of 0.776 enrichment R.
With B16 the figure was 0.986 enrichment R.
Turning to B17, the binding signal is 1.17 enrichment R.
With B18 the figure was 3.06 enrichment R; with B19, 1.88 enrichment R.
In the case of B20 it was 0.816 enrichment R; in that of B21, 0.892 enrichment R.
With B22 the figure was 0.976 enrichment R.
